# Source: PubChem BioAssay AID463173 (ICCB-Longwood Screening Facility, Harvard Medical School, 2010)
# In all, about 52,000 compounds went through this assay and about 1,700 (3.3%) were called active. No stated cut-off is given here; in the data, active means survival mostly below about 52% (no sharp cut-off); inactive means mostly above about 56%. The list shows a part of the results.
# Tested on: Wild type
# Test: S. aureus survival, RN4220 and DeltatarO strains – OD600, teichoic acid synthesis inhibitors, primary screen (AID 463173)
# Settings: S. aureus RN4220 wild type/DeltatarO growth, OD600, 18 h, hits give low values, screened at 18.75 µg/mL (by protocol)
row,Structure (SMILES),survival
1,CCOc1ccccc1CNC(=O)c1ccc2nc(Cc3ccc(OC)cc3)oc2c1,inactive: 72%
2,CCOCCCNC(=O)NC(CCC(C)C)c1c(-n2cccc2)sc2c1CCN(C)C2 (stereo not drawn),inactive: 128%
3,CCc1ccc(NC(=O)CSc2cn(CC(=O)N3CCCC3)c3ccccc23)cc1,inactive: 105%
4,CCOc1ccccc1NC(=O)N1CCCC(c2nc3c(nnn3Cc3ccc(C)cc3)c(=O)[nH]2)C1 (stereo not drawn),inactive: 102%
5,COc1ccc(N2CCN(C(=O)CCNS(=O)(=O)c3ccc4c(c3)CCN4C(=O)C3CC3)CC2)cc1,inactive: 84%
6,COc1ccc(CNC(=O)c2ccc(Cn3c(=O)c4cccn4c4cccnc43)cc2)cc1OC,inactive: 91%
7,O=C(c1ccc(F)cc1)C1CCN(S(=O)(=O)c2ccc(F)cc2)CC1,inactive: 102%
8,O=c1c2sc3ccccc3c2n(Cc2cccc(C(F)(F)F)c2)c(=O)n1Cc1ccco1,inactive: 81%
9,Cc1ccc(OCC(=O)Nc2ccc(S(=O)(=O)Nc3ncccn3)cc2)c(C(C)(C)C)c1,inactive: 64%
10,CN1CCN(CCCNC(=O)c2cnn(-c3ccccc3)c2-n2cccc2)CC1,inactive: 81%
11,CC(C)(C)C(=O)CSc1nc2ccsc2c(=O)n1Cc1ccccc1F,inactive: 134%
12,Cc1ccc(C)c(-c2nc(Cn3c(=O)cc(-c4ccccc4)c4c(C)nn(C)c43)c(C)o2)c1,inactive: 134%
13,O=C(NCCN1CCOCC1)c1c(Cl)cccc1Cl,inactive: 106%
14,COc1cccc(-c2nc(SCc3cc(=O)c4ccc(C)c(C)c4[nH]3)n[nH]2)c1,inactive: 97%
15,CCOc1ccc(NC(=O)Cn2cc(C(=O)c3ccc(CC)cc3)c(=O)c3cc(C)ccc32)cc1,inactive: 78%
16,CCOc1cccc(C(=O)Nc2ccc(S(=O)(=O)N(Cc3ccccc3)c3ccccc3)cc2)c1,inactive: 88%
17,CCCN(C(=O)c1nn(-c2ccc(OC)cc2)c(=O)c2c1c1ccccc1n2C)c1ccc(CC)cc1,inactive: 95%
18,COc1ccc2nc(SCC(=O)N3CCCCC3)c(C#N)cc2c1,inactive: 100%
19,Cc1ccc(Cc2c(C)nc3nc(SCC(=O)NC(C)c4ccccc4)nn3c2C)cc1 (stereo not drawn),inactive: 66%
20,CCOC(=O)/C(C#N)=C\c1cn(C)c2ccccc12,inactive: 101%
21,COc1ccc(NC(=O)c2csc3c2CCCCC3)cc1,inactive: 72%
22,Cc1ccc(Cc2nc3ccccc3nc2SCC(=O)NCCC(C)C)cc1,inactive: 121%

row,Structure (SMILES),survival
1,COc1ccc(CCN(Cc2cc3cc4c(cc3[nH]c2=O)OCO4)C(=O)c2ccncc2)cc1OC,inactive: 113%
2,CC(NC(=O)Nc1c[nH]c2ccccc2c1=O)c1ccncc1 (stereo not drawn),inactive: 106%
3,O=C(CSc1nc2c([nH]c3ccccc32)c(=O)n1-c1ccc(F)cc1)NCc1ccccc1,inactive: 74%
4,CCOCCCn1c(SCC(=O)Nc2ccc(C(C)C)cc2)nc2c(sc3ccccc32)c1=O,inactive: 120%
5,COc1ccc(S(=O)(=O)c2nnn(-c3cc(Cl)c(OC)cc3OC)c2C)cc1,inactive: 90%
6,COc1ccc(C(=O)NCC(c2cccnc2)N2CCc3ccccc3C2)cc1OC (stereo not drawn),inactive: 93%
7,COC(=O)c1cc2occc2n1Cc1nc(-c2ccccc2F)oc1C,inactive: 79%
8,Cn1c(=O)c2c(-c3ccccc3)n3c4ccccc4nc(-c4ccccc4)c3c2n(C)c1=O,inactive: 77%
9,CCn1c(=O)c2cc(C(=O)Nc3cc(F)ccc3F)sc2c2ccccc21,inactive: 101%
10,O=C(Nc1cccc(-c2nc3cc(Cl)ccc3o2)c1)c1cc([N+](=O)[O-])ccc1N1CCOCC1,inactive: 76%
11,CC(C)C(Nc1ccc(C(F)(F)F)cn1)C(=O)O (stereo not drawn),inactive: 108%
12,Cc1ccc(CN2CCC(CNc3ncnc4onc(-c5ccc(F)cc5)c34)CC2)cc1,active: -4%
13,CCN1/C(=C2/SC(=S)N(C)C2=O)Sc2ccc(S(=O)(=O)C(F)(F)F)cc21,inactive: 112%
14,COc1ccc(CN2C(=O)c3oc4ccccc4c(=O)c3C2c2ccc(O)cc2)cc1 (stereo not drawn),inactive: 74%
15,COc1ccc(OC)c(NC(=O)CN(C)S(=O)(=O)c2ccc(C(=O)N3CCOCC3)s2)c1,inactive: 72%
16,O=C(Cn1cnc2c(oc3ccccc32)c1=O)Nc1ccccc1C(F)(F)F,inactive: 87%
17,COc1ccc(C)cc1NC(=O)N(Cc1ccc(C)o1)C1CCN(C(C)=O)CC1,active: 0%
18,Cc1ccc(-c2nnc(Nc3cccc(Cl)c3)c3ccccc23)cc1S(=O)(=O)N1CCOCC1,inactive: 104%
19,COc1ccccc1NC(=O)Cn1c(=O)n(Cc2ccccc2)c(=O)c2sc3ccccc3c21,inactive: 87%
20,Cc1cc(C)c(NC(=O)CSc2nc3ccccc3nc2N2CCCCC2)c(C)c1,inactive: 38%
21,CC1CCN(C(=O)Cn2cc(SCC(=O)NCc3ccccc3Cl)c3ccccc32)CC1,inactive: 85%
22,CCC(C(=O)Nc1cccc(Cl)c1C)n1nc(-c2ccc(C)cc2)ccc1=O (stereo not drawn),inactive: 86%

row,Structure (SMILES),survival
1,CC(C)COc1cccc(C(=O)Nc2ccc(-c3nc4ncccc4o3)cc2)c1,inactive: 91%
2,CCCc1nc2sc3c(N4CCC(C)CC4)ncnc3c2c2c1CCCC2,inactive: 75%
3,Nc1nc(C2CC(=O)OC23CCCCC3)cs1 (stereo not drawn),inactive: 101%
4,O=C(NCc1cccc(Cl)c1)c1cc2ccc3cccnc3c2[nH]1,inactive: 82%
5,CC(C)COc1ccc(C(=O)Nc2ccc(S(=O)(=O)Nc3ncccn3)cc2)cc1,inactive: 86%
6,Oc1ccc(Oc2ncc(Cl)cc2Cl)cc1,inactive: 118%
7,Cc1ccc(Cl)cc1NC(=O)C(C)n1nnc2sc3c(c2c1=O)CCCC3 (stereo not drawn),inactive: 80%
8,Cc1cccc(N2CCN(S(=O)(=O)c3ccc4c(c3)CCCN4C(=O)C3CCC3)CC2C)c1 (stereo not drawn),inactive: 73%
9,CCOc1ccc(NC(=O)CN2C(=O)C(c3ccccc3)=NC23CCC(C)CC3)cc1 (stereo not drawn),inactive: 83%
10,COc1cc2c(=O)c(S(=O)(=O)c3ccc(F)cc3)cn(Cc3ccc(Cl)cc3)c2cc1OC,inactive: 81%
11,CCOC(=O)c1ccc(CN(Cc2ccc(F)cc2)S(=O)(=O)c2cc(C(=O)Nc3cccc(C(F)(F)F)c3)ccc2F)cc1,inactive: 93%
12,CCCN1C(C(=O)c2ccccc2)=C(OC(=O)COc2ccccc2)c2ccccc2S1(=O)=O,inactive: 72%
13,O=C(NC1CCCCCC1)c1ccc2c(c1)sc1nc(-c3ccc(F)cc3)cn12,inactive: 114%
14,COc1ccc(Cn2c(=O)[nH]c3cc(C(=O)N4CCN(c5cccc(Cl)c5)CC4)ccc3c2=O)cc1,inactive: 63%
15,Cn1c(=O)n(-c2ccc(Br)cc2F)c(=O)c2sc3ccccc3c21,inactive: 94%
16,Cc1cc(NC(=O)CN2CCCCC2)no1,inactive: 100%
17,CC(=O)c1ccc(NC(=O)c2noc3c2CCc2ccccc2-3)cc1,inactive: 88%
18,N#CC1=C(N)OC2=C(C(=O)CCC2)C1c1c(F)cccc1Cl (stereo not drawn),inactive: 113%
19,O=C(Nc1ccc(C(=O)OCc2cc(=O)n3c4c(sc3n2)CCCC4)cc1)c1ccccc1,inactive: 19%
20,COc1ccc(C2C(C(N)=O)=C(C)Nc3nc(CCCO)nn32)c(OC)c1 (stereo not drawn),inactive: 62%
21,CCCS(=O)(=O)c1c(S(=O)(=O)CCC)c2cc(CC)ccn2c1C(=O)c1ccc(OC)cc1,inactive: 93%
22,COc1ccc(CCNC(=O)c2cnc3ccc(C)cn3c2=O)cc1,inactive: 86%

row,Structure (SMILES),survival
1,CCOc1ccc(NC(=O)N2CCC(C(N)=O)(N3CCCCC3)CC2)cc1,inactive: 112%
2,CC(C)CS(=O)(=O)c1oc(-c2ccc(F)cc2)nc1S(=O)(=O)c1ccccc1,active: 3%
3,COc1cccc(Cn2nnc(C(=O)Nc3cc(C)ccc3C)c2N)c1,inactive: 102%
4,O=C(Cn1c(=O)n(Cc2ccccc2)c(=O)c2sc3ccccc3c21)NCc1ccccc1Cl,inactive: 125%
5,O=C(CCc1nc(-c2cccs2)no1)Nc1ccccc1[N+](=O)[O-],inactive: 74%
6,O=C(NC1CC(=O)N(c2cccc(F)c2)C1)c1ccc(S(=O)(=O)N2CCCC2)cc1 (stereo not drawn),inactive: 54%
7,Cc1ccn2c(=O)c(C(=O)NCCc3ccccc3)c(O)nc2c1,inactive: 131%
8,CCOc1ccccc1CNC(=O)Cn1c(-c2ccccc2)cc(C(C)=O)c1C,inactive: 67%
9,CC1CC(C)(C)NC(=O)O1 (stereo not drawn),inactive: 109%
10,Cc1ccc2nc(NC(=O)CSc3nccn3Cc3ccc(Cl)cc3)sc2c1,inactive: 72%
11,Cc1cc(-c2ccccc2)n2nc(N)nc2n1,inactive: 104%
12,CCN(CC)c1cc(C)c2cc(NC(=O)c3cccc(F)c3)ccc2n1,inactive: 61%
13,CSc1ccc(CCNC(=O)c2cnn(-c3ccccc3)c2-n2cccc2)cc1,active: 9%
14,O=C(Nc1cccc(Cl)c1)N1CCSc2ccccc21,inactive: 127%
15,Cc1cccc(NC(=O)c2cc(S(=O)(=O)N3CCc4ccccc43)ccc2F)c1C,inactive: 65%
16,CCOC(=O)c1cnc2c(ccc3ccccc32)c1Nc1ccccc1OCC,inactive: 109%
17,COCCCNC(=O)CS(=O)Cc1nc(-c2cccc(C)c2)oc1C (stereo not drawn),inactive: 82%
18,COc1ccc(OC)c(-c2cc(C(=O)NCCc3ccccc3)c3c(-c4ccc(C)cc4)[nH]nc3n2)c1,inactive: 93%
19,COc1ccc(N2CCN(C(=O)C3CCCN(S(=O)(=O)c4ccc5c(c4)CCCN5C(C)=O)C3)CC2)cc1 (stereo not drawn),inactive: 115%
20,CCCn1cc(S(=O)(=O)c2ccccc2)c(=O)c2cc(F)c(N3CCCCC3)cc21,inactive: 74%
21,Cc1ccc(N2C(=O)CSC23C(=O)N(CC(=O)NCCc2ccccc2)c2ccccc23)cc1C (stereo not drawn),inactive: 66%
22,CCOc1ccccc1NC(=O)c1c(NC(=O)COc2ccccc2)sc2c1CCCCC2,inactive: 144%
